Values joined by “and” are separate entries in the source; they are usually repeats but may differ in a detail not shown here. Equal values may be shown once. The inconclusive results got no clear call from the source; some entries with a clear call stand among them for comparison. For part of these data: Where the call is inconclusive, the potency comes from a doubtful curve fit. Active and inactive are the calls of the source. Calls come from the whole dose curve; as a rule, active = well fitted curve in the direction sought with a large enough effect; inconclusive = small, poorly fitted or top-dose-only effect, or another doubt; inactive = no such curve, though single readings can be large; an effect the other way counts as inactive or inconclusive.
Assay: Cell Viability - Renal Proximal Tubule (AID 545);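 note: cells exposed to compound for 40 hours; 0% = DMSO only and -100% = 100 µM tamoxifen; nearly all actives have a fitted effect of over 40% in size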
Conditions: renal proximal tubule cells viability, primary cells of rat origin; at 91.7 µM (top of the series)
How it was run: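 Cytotoxicity is scored as a concentration-dependent drop in cellular ATP in primary rat renal proximal tubule cells exposed for 40 hr. AC50 derives from Hill modelling.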
Tags give direction and shape of the fitted curve.

Compound | activity change, negative = cytotoxicity
O=C(O)CN(CC(=O)O)CC(=O)O | inactive: -5.21%
Nc1ccc2c(c1)C(=O)c1ccccc1C2=O | inconclusive: -41.1%
O=C(O)c1cc(N=Nc2ccc([N+](=O)[O-])cc2)ccc1O | inconclusive: -29%
Cc1cc2nc(N)sc2cc1C | inconclusive: -51%
O=[N+]([O-])c1ccccc1Nc1ccccc1 | inactive: -18%

Assay: Cell Viability - Mesenchymal (AID 546);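 note: cells exposed to compound for 40 hours before reading; 0% = DMSO only and -100% = 100 µM tamoxifen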
Conditions: mesenchymal cells viability, qHTS; at 91.7 µM (top of the series)
How it was run: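 CellTiter-Glo luminescence (intracellular ATP, 20 min room temperature) after 40 hr compound exposure at 37 °C of 1000 glomerulus-derived human kidney mesenchymal cells/well; AC50 values obtained by fitting qHTS concentration-response data to the Hill equation.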

Compound | activity change, negative = cytotoxicity
c1ccccc1 | inactive: 7.51% and inactive: 0.0243%
CCNc1ccccc1 | inactive: 10.8%
c1ccc2c(c1)-c1cccc3c1c-2cc1ccccc13 | inconclusive: -41.2%
Nc1ccc2c(c1)C(=O)c1ccccc1C2=O | inconclusive: -32.2%
Nc1ccc(N=Nc2ccccc2)c(N)c1 | inconclusive: -42.7%
Cc1cc2nc(N)sc2cc1C | inconclusive: -37.3%

Assay: Cellular Toxicity (caspase-3) NIH 3T3 (AID 666);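 note: potency is the fitted concentration of half-maximal effect; caspase signal read after 16 h compound exposure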
Conditions: NIH 3T3 caspase-3 activation, apoptosis/toxicity; series mostly up to 92.2 µM
How it was run: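 Activity: caspase-3/7 induction, NIH 3T3 cells, 16 hr treatment at 37°C, luminescent Caspase-Glo detection; AC50 via Hill equation.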

Compound | Potency
Nc1ccc2c(c1)C(=O)c1ccccc1C2=O | inconclusive: 2.51 µM [falling, full curve]
O=C(O)c1cc(N=Nc2ccc([N+](=O)[O-])cc2)ccc1O | inconclusive: 2.51 µM [falling, full curve]
Nc1ccc(N=Nc2ccccc2)c(N)c1 | inconclusive: 10 µM [falling, partial curve]
Cc1cc2nc(N)sc2cc1C | inconclusive: 3.16 µM [falling, full curve]

Assay: Cell Viability - LYMP2-001 (AID 921);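 note: cells exposed to compound for 24 h at 37 °C; nearly all actives have a fitted effect of over 70% in size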; note: potency is the fitted concentration of half-maximal effect;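 for activity change, negative = cytotoxic: 0% = DMSO only and full inhibition = tetraoctylammonium bromide control wells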
Conditions: LYMP2-001 lymphoblastoid cell viability; activity change, negative = cytotoxic: at 92.2 µM (top of the series)
How it was run: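 qHTS, 1536-well; lymphoblastoid cells, 24 hr compound, 37 C; ATP by CellTiter-Glo, 30 min RT; luminescence; Hill-fit AC50.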

Compound | Potency
Nc1ccc2c(c1)C(=O)c1ccccc1C2=O | inconclusive: 79.4 µM [cytotoxic, partial curve, poor fit]
C[Si](C)(C)Cl | inactive
O=C(O)c1cc(N=Nc2ccc([N+](=O)[O-])cc2)ccc1O | inconclusive: 79.4 µM [cytotoxic, single point]
CC=C(Cl)Cl | inconclusive: 50.1 µM [cytotoxic, single point]
C=C(C)C1CC=C(C)C(OC(C)=O)C1 (centres undefined) | inactive
O=[N+]([O-])c1ccccc1Nc1ccccc1 | inconclusive: 39.8 µM [cytotoxic, single point]

Assay: MultiTox-Fluor Cytotoxicity Assay - LYMP1-001 - Live Cells (AID 947); note: potency is the fitted concentration of half-maximal effect;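 for activity change, negative = cytotoxicity: 0% = DMSO only and full inhibition = tetraoctylammonium bromide control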
Conditions: LYMP1-001 lymphoblastoid cells, live-cell protease fluorescence viability; series mostly up to 92.2 µM

Compound | Potency
c1cc2c3c(c1)ccc1cccc(c13)C2 | inactive
C[Si](C)(C)Cl | inconclusive: 12.6 µM [cytotoxic, partial curve, poor fit]
CC=C(Cl)Cl | inactive

Source: PubChem BioAssay (NCATS)
